# According to the supplement of paper PMC8674133:
# B1: C2329 (protein)
# chain 1: QVQLVQSGDEVKKPGASVKVSCKASGYTFTSHGISWVRQAPGQGLEWMGWISAYNGNTNYAQKLQGRVTMTTDTSTSTAYMELRSLRSDDTAVYYCARASGFMVRGVNPNYYYYMDVWGKGTTVTVSS
# chain 2: QSALTQPASVSGSPGQSITISCTGTSSDVGSYNLVSWYQQHPGKAPKLMIYEGSKRPSGVSNRFSGSKSGNTASLTISGLQAEDEADYYCCSYAGSSTWVFGGGTKLTVL
# B2: C2311 (protein)
# chain 1: EVQLVESGGGLVQPGRSLRLSCAASGFTFDDYAMHWVRQAPGKGLEWVSGISWNSGSIGYADSVKGRFTISRDNAKNSLYLQMNSLRAEDTALYYCAKAHVDTAMVKGPFWFDPWGQGTLVTVSS
# chain 2: EIVMTQSPATLSVSPGERATLSCRASQSVSSNLAWYQQKPGQAPRLLIYGASTRATGIPARFSGSGSGTEFTLTISSLQSEDFAVYYCQQYNNWPPGITFGQGTRLEIK
# B3: C2328 (protein)
# chain 1: EVQLVESGGGLIQPGGSLRLSCAASGFTVSSSYMHWVRQAPGKGLEWISVIYSSGNTFSPDSMKGRFTISRDNSKNMVYLHMDSLRVEDTAVYYCARGHCSTTSCFRDGQDVWGQGTTVTVSS
# chain 2: DIQLTQSPSSLSASVGDRVTITCRASQTIDGYLNWYQQKPGKAPRLLIYAASSLQSGVPSRFSGSGSGTDFTLTISSLQPEDFATYYCQQSYNTLSFGGGTKVEIK
# B4: C2309 (protein)
# chain 1: EVQLVQSGAEVKKPGESLKISCKGSGYNFTSYWIGWVRQMPGKGLEWMGIICPGDSDTRYSPSFQGQVTISADKSISTAYLQWSSLKASDTAMYYCAIAKYMYYDILTGYYNDGWSFDPWGQGTLVTVSS
# chain 2: QSALTQPASVSGSPGQSITISCTGTSSDVGGYNYVSWYQQHPGKAPKLMISEVSNRPSGVSNRFSGSKSGNTASLTISGLQSEDEADYYCSSYTSSSTLGVFGGGTKLTVL
# B5: C2319 (protein)
# chain 1: EVQLVESGGGLIQPGGSLRLSCAASVFTVSSNYMSWVRQAPGKGLEWVSVIYSGGSTFYADSVKGRFTISRDNSKNTLYLQMNSLRAEDTAVYYCARDYGDFYFDYWGRGTLVTVSS
# chain 2: not shown
# B6: C2331 (protein)
# chain 1: QVQLVQSGAEVKKPGASVKVSCKASGYTFTSYDINWVRQATGQGLEWMGWMNPNSGNTAYAQKFQGRVTITRNTSISTAYMELSSLRSEDTAVYYCARGTYCSTTICYTRDWFDPWGQGTLVTVSS
# chain 2: SYELTQPPSVSVAPEQTARITCGGNNIGSKSVHWYQQKPGQAPVLVVYDDSDRPSGIPERFSGSNSGNTATLTISRVEAGDEADYYCQVWDSSSDPHYVFGTGTKVTVL
# B7: C2308 (protein)
# chain 1: EVQLVESGGGLVQPGGSLRLSCAASGFTVSSNYMSWVRQAPGKGLEWVSVIYSGGSTYYADSVKGRFTISRDNSKNTLYLQMNSLRAEDTAVYYCARDLVVRGTSYWGQGTLVTVSS
# chain 2: not shown
# B8: C2318 (protein)
# chain 1: EVQLVESGGGLVQPGGSLRLSCAASGFTVSSNYMSWVRQAPGKGLEWVSVIYSGGSTFYADSVKGRFTISRDNSKNTLYLQMDSLRAEDTAVYYCARDLVVRGTSYWGQGTLVTVSS
# chain 2: not shown
# B9: C2009 (protein)
# chain 1: QVQLQQWGTGLLKPSETLSLTCAVYGGSFSGYYWSWIRQPPGKGLEWIGDINHSGATNDNPSLKSRVTISVDTSKSQFSLQLSSVTAADTAVYYCARGIKEGADSLYGFWSGARPPAYYYAMDVWGQGTTVTVSS
# chain 2: IRMTQSPSSLSASVEDRVTITCRASQDISNYLAWFQQKPGKAPKSLIYAASSLQSGVPSKFSGSGSGTDFTLTISSLQPEDFATYYCLQYYTYPLTFGGGTKVEIK
# Target: SARS-CoV-2 Wuhan-Hu-1 spike pseudovirus
# Assay: pseudovirus neutralization IC50; higher = weaker neutralization
# Method: (§1)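 Single-round luciferase reporter pseudovirus mixed with antibody dilutions and put on 293T-ACE2 cells for 48 h; signal relative to no-antibody wells, four-parameter fit.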
row,Binder,pseudovirus neutralization IC50 [µg/mL]
1,B1,0.00568
2,B2,> 1
3,B3,0.503
4,B4,> 1
5,B5,0.0048
6,B6,> 1
7,B7,0.289
8,B8,0.116
9,B9,> 1

# Target: SARS-CoV-2 Wuhan-Hu-1 spike pseudovirus
# Assay: pseudovirus neutralization IC90; higher = weaker neutralization
# Method: as §1
row,Binder,pseudovirus neutralization IC90 [µg/mL]
1,B1,0.0607
2,B2,> 1
3,B3,> 1
4,B4,> 1
5,B5,0.0358
6,B6,> 1
7,B7,> 1
8,B8,0.684
9,B9,> 1

# Target: SARS-CoV-2 Wuhan-Hu-1 spike receptor-binding domain
# Assay: ELISA binding EC50; higher = weaker binding; ELISA of recombinant human antibody on coated antigen, from 10 µg/ml in fourfold dilutions; four-parameter fit.
row,Binder,ELISA binding EC50 [µg/mL]
1,B1,0.00201
2,B2,0.00331
3,B3,0.00182
4,B4,0.0106
5,B5,0.00279
6,B6,0.00296
7,B7,0.00655
8,B8,0.00265
9,B9,> 10

# Recombinant human monoclonal antibodies (heavy:light variable regions). ELISA EC50 on the named antigen, from 10 µg/ml down; IC50 / IC90 against spike pseudovirus on 293T-ACE2 cells, 48 h; lower = stronger. Calls: IC50 above 1,000 ng/ml = non-neutralizing; EC50 above 2,000 ng/ml = non-binder. The source prints 1000 for neutralization that was not reached; it is given as >1000 ng/ml. A few antibodies were first reported in earlier work of the same group.
